# In paper PMC12350791:
# A number of entries come with more than one value. The other results are left out here. The source may hold further records. Some entries list several cross-links; each record is another pair of residues.
# Target: CCT3 (UniProt P49368)
# Experiment: cross-linking mass spectrometry
# Conditions: DSBSO, in cells or nuclear extract, not told apart
# CCT8, P50990, sequence (P50990 whole entry): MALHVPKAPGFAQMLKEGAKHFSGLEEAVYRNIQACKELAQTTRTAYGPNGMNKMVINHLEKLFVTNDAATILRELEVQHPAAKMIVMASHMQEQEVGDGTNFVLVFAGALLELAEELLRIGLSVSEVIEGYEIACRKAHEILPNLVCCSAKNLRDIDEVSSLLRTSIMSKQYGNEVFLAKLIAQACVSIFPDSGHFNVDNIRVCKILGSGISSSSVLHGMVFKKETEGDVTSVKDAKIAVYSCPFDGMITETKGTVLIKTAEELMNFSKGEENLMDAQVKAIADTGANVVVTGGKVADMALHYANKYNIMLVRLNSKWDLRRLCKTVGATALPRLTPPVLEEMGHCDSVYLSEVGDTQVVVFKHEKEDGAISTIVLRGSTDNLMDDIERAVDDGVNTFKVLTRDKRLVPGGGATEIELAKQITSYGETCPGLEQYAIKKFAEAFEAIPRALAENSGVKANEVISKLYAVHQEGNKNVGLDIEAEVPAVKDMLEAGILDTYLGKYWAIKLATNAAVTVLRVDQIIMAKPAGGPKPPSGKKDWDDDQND
# CCT6A, sequence (P40227 whole entry): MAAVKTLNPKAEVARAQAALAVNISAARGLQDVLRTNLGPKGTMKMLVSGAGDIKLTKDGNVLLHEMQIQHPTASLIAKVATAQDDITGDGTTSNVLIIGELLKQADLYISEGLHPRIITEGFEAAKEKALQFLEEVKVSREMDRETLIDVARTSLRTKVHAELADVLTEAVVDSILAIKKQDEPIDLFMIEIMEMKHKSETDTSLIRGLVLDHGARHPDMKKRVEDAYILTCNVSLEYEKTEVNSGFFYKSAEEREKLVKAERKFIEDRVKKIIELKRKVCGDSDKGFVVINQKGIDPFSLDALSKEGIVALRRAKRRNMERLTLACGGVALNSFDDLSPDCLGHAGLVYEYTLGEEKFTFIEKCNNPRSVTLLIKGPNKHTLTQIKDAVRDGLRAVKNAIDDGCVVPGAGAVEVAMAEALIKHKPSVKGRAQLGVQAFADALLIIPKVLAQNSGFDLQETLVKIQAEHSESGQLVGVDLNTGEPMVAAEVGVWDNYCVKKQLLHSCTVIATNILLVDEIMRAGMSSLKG
# TCP1, sequence (P17987 whole entry): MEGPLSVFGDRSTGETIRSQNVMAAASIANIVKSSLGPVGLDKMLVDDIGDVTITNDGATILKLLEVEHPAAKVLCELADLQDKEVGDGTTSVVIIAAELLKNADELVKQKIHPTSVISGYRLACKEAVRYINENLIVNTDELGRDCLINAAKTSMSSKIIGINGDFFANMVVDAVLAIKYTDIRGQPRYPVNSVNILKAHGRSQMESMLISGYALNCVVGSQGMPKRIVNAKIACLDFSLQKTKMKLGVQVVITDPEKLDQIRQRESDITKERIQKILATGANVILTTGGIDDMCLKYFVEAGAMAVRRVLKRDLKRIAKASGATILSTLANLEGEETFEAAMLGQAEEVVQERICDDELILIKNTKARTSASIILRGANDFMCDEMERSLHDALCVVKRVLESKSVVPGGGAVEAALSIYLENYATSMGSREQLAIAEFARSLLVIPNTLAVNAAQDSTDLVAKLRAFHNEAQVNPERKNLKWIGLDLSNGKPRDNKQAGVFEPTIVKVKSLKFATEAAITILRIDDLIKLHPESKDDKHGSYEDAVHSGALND
# CCT3, P49368, sequence (P49368 whole entry): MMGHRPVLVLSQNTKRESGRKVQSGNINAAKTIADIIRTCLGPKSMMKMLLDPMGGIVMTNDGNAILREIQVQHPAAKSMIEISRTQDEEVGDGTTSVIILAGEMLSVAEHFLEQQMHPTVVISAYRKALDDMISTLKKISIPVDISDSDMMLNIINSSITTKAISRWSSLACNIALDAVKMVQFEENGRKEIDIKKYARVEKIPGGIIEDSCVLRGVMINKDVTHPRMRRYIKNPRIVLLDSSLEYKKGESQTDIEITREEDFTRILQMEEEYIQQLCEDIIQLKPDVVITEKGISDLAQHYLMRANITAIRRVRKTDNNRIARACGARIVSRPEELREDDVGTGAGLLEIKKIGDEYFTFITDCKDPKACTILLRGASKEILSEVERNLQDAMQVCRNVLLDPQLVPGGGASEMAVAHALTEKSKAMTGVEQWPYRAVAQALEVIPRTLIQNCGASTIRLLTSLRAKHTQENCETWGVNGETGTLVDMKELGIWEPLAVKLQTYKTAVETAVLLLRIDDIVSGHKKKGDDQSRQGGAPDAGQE
# CCT5, sequence (P48643 whole entry): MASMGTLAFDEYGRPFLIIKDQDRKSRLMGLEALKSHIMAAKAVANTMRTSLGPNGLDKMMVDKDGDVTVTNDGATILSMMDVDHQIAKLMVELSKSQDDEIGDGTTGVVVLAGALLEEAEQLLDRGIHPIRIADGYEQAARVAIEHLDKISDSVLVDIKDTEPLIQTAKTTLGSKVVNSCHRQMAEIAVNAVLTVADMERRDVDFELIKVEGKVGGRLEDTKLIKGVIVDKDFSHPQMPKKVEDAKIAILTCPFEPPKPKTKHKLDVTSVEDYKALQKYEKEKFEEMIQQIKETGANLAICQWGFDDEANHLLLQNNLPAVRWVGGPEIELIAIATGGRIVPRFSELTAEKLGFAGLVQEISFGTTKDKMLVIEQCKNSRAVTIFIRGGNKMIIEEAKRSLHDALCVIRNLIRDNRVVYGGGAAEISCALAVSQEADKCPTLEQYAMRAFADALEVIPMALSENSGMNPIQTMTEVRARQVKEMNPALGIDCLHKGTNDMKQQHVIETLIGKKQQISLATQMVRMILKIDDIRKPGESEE
# PDCD5, sequence (O14737 whole entry): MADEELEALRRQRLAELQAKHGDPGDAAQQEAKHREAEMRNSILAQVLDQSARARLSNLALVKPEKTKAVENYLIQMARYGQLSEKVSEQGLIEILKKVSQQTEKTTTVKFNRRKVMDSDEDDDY
# CCT2, sequence (P78371 whole entry): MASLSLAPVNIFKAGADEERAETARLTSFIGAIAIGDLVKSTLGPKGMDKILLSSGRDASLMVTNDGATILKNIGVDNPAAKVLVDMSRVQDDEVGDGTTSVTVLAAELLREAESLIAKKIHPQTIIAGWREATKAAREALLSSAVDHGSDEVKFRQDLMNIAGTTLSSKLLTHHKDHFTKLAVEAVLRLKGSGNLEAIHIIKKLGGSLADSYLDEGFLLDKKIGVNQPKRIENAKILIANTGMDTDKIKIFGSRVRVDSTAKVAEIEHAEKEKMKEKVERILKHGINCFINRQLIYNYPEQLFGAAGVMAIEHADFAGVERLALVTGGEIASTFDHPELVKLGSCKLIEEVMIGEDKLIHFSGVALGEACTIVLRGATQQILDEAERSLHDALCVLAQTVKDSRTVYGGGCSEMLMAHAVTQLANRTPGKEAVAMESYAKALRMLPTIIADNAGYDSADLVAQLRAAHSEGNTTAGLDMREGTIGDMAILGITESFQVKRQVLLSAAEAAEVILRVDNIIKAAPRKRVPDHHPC
row,Substance,cross-linked residues
1,"TCP1, P17987",K73 - K529 and K102 - K21 and K199 - K138 and K494 - K128
2,"CCT6A, P40227",K10 - K21 and K127 - K163 and K530 - K78 and K530 - K381
3,"PDCD5, O14737",K20 - K248 and K20 - K249

# Target: CCT7 (UniProt Q99832)
# UniProt Q99832, sequence (Q99832 whole entry): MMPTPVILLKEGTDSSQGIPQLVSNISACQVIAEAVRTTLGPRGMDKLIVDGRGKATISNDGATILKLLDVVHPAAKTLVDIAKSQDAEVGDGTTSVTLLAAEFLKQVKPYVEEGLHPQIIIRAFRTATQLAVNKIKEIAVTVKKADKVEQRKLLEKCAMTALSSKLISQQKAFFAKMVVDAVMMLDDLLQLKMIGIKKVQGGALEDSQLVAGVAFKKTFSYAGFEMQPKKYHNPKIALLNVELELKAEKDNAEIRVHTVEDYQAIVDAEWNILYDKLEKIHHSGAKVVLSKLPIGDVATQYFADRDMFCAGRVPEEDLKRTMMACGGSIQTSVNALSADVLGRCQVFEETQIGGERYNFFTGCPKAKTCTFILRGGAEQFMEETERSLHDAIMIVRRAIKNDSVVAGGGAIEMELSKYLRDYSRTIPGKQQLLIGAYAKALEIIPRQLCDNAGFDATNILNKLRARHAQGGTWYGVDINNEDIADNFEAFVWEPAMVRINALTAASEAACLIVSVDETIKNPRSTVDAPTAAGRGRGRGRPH
# Experiment: cross-linking mass spectrometry
# Conditions: DSBSO, in cells or nuclear extract, not told apart
row,Substance,cross-linked residues
1,"CCT8, P50990",K260 - K250 and K296 - K292
2,"CCT2, P78371",K248 - K250 and K250 - K250
3,"CCT5, P48643",K232 - K250 and K368 - K250

# Target: CCT8 (UniProt P50990)
# Experiment: cross-linking mass spectrometry
# Conditions: DSBSO, in cells or nuclear extract, not told apart
row,Substance,cross-linked residues
1,"TCP1, P17987",K466 - K466 and K494 - K466
2,"CCT6A, P40227",K10 - K16 and K10 - K20 and K199 - K326 and K199 - K400 and K251 - K260 and K251 - K270 and K307 - K238 and K377 - K400 and K530 - K16
3,"CCT3, P49368",K21 - K16 and K21 - K459 and K31 - K20 and K128 - K466
